Measured values from PubChem BioAssay AID1347417 (National Center for Advancing Translational Sciences (NCATS), 2020).
Among all 120,000 compounds or so, about 5,300 (4.4%) were called active. Inconclusive results, whose numbers are uncertain, are shown with a selection of clear calls. Calls come from the whole dose curve; as a rule, active = well fitted inhibition curve with a large enough effect; inconclusive = small, poorly fitted or top-dose-only effect; inactive = no such curve, though single readings can be large or run the other way. Potencies beside an inconclusive call are fits to weak or partial responses and may not hold up.

Assay: qHTS Primary assay for Inhibitors of Plasmodium falciparum Dd2 growth in vitro; note: nearly all actives have a fitted effect of over 65% in size;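 for activity, negative = inhibition: plate controls were DMSO vehicle for no effect and reference drug for full effect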
Conditions: P. falciparum Dd2 growth, SYBR Green, 72 h; activity, negative = inhibition: at 28.9 µM (top of the series) unless noted; series mostly up to 28.9 µM
Procedure, shortened: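 Readout: SYBR Green fluorescence, 485 nm excitation, 535 nm emission, after ~16 h lysis at 37C. Before that, Dd2-infected red cells (2.5% hematocrit) grew 72 h with compound, 29 uM top final concentration.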
Potency is the fitted concentration of half-maximal effect; tags give direction and shape of the fitted curve.

| Compound | Potency | activity, negative = inhibition | outcome |
| --- | --- | --- | --- |
| COc1ccc(OC)c(CNC(=O)C2Cn3cccc3C(=O)N2C)c1 (stereo not drawn) | inconclusive: 17.8 µM [inhibitor, single point] |  |  |
| CC(C)(C)c1ccc(OCCOCCn2c(-c3ccc(Cl)cc3)nc3ccccc3c2=O)cc1 | inconclusive: 17.8 µM [inhibitor, single point] |  |  |
| O=C1CCN(C(=O)c2ccsc2)CCCC(c2nc(-c3cnccn3)no2)CCN1 (stereo not drawn) | inconclusive: 2.82 µM [inhibitor, full curve, poor fit] |  |  |
| Cc1cccc(N2CCN(C(=O)CC3CCCCN(Cc4ccccc4)C3=O)CC2)c1 (stereo not drawn) | inconclusive: 20 µM [inhibitor, single point] |  |  |
| C[C@H]1[C@@H]2[C@H]3OC(=O)[C@@H](C)[C@@H]3CC[C@@]2(C)CC[C@@H]1NC(=O)c1ccccn1 | inconclusive: 11.2 µM [inhibitor, partial curve] |  |  |
| Cc1ccc2c(n1)N(C)[C@H](CO)CCN(Cc1ccc(C(F)(F)F)cc1)C2 | inconclusive: 1.58 µM [inhibitor, full curve, poor fit] |  |  |
| CC(C)Oc1ccc(CNC(=O)C2CCN(Cc3cc4ccccc4n3Cc3ccccc3)CC2)cc1 | inconclusive: 17.8 µM [inhibitor, single point] |  |  |
| N#CC1(c2ccccc2)CCN(C(=O)c2ccc3nccn3c2)CC1 | inconclusive: 17.8 µM [inhibitor, single point] |  |  |
| CCN1c2cc(C(=O)Nc3ccc(F)c(Cl)c3)ccc2C(=O)N2CCCCCC21 (stereo not drawn) | inconclusive: 3.98 µM [inhibitor, partial curve, poor fit] |  |  |
| O=C(CCn1ccn2nc3c(c2c1=O)CCCC3)Nc1ccccc1Br | inconclusive: 8.91 µM [inhibitor, single point] |  |  |
| O=C(CN1C(=O)NC(c2ccc(Cl)cc2)C2=C1COC2=O)Nc1ccc(Br)cc1F (stereo not drawn) |  | inactive: -23.2% |  |
| C[C@@H](NC(=O)C[C@@H]1c2nc(NC(=O)CC(C)(C)C)sc2C[C@@H]2[C@](C)(CO)[C@H](O)CC[C@]21C)c1ccccc1 | active: 11.2 µM |  |  |
| CC1=C[C@@H](CNC(=O)Nc2ccc(F)cc2)[C@H](C(C)C)C[C@H]1Cc1nc2c(C)cccc2[nH]1 | inconclusive: 0.891 µM [inhibitor, partial curve, poor fit] |  |  |
| O=C(NC1CCCN(c2cc(-c3ccc(F)cc3)[nH]n2)C1)c1c[nH]c2ccccc12 (stereo not drawn) | inconclusive: 3.98 µM [inhibitor, single point] |  |  |
| CC(=O)NCCC(=O)N1Cc2ccccc2CC2(CCN(CC3CCOCC3)CC2)C1 |  | inactive: 16.2% |  |
| NC(=O)[C@@H]1CN(C(=O)c2ccco2)C[C@H]1COc1ccccc1 |  | inactive: 0.44% |  |
| Cc1cc(Br)cc2c1N(Cc1ccccc1OC(C)C)C(=O)C2=O | active: 11.2 µM |  |  |
| O=C(c1cc(-c2ccc(F)cc2)nc2ccccc12)N1CCC(Cc2nncn2CC2CC2)CC1 | inconclusive: 5.62 µM [inhibitor, partial curve, poor fit] |  |  |
| CC(C)Oc1ccc(CNC(=O)c2ccc(NC(=O)N3CC(C)Sc4ccccc43)cc2)cc1 (stereo not drawn) | inconclusive: 11.2 µM [inhibitor, single point] |  |  |
| O=C(/C=C/c1ccccc1)Nc1nc2n(n1)C(c1ccc(F)cc1)C=C(c1ccccc1)N2 (stereo not drawn) | active: 10 µM |  |  |
| Cc1ccccc1N1CCN(c2ncccc2CNC(C)Cn2cncn2)CC1 (stereo not drawn) | inconclusive: 10 µM [inhibitor, single point] |  |  |

| Compound | Potency | activity, negative = inhibition | outcome |
| --- | --- | --- | --- |
| O=C(NC1CCN(c2cc(-c3ccc(F)cc3)[nH]n2)C1)c1ccc2[nH]ccc2c1 (stereo not drawn) | active: 5.01 µM |  |  |
| O=C(Cc1ccc(F)cc1)N1CCC2(CN[S+](=O)([O-])c3cccnc3O2)C1 (stereo not drawn) |  | inactive: 19.7% |  |
| Cc1noc(C)c1-c1cc(-c2cccnc2)cn2cncc12 | inconclusive: 39.8 µM [inhibitor, single point] |  |  |
| COc1ccc(NC(=O)c2ccc3c(c2)N(C)C2CCCCN2C3=O)c(OC)c1 (stereo not drawn) | inconclusive: 11.2 µM [inhibitor, single point] |  |  |
| O=C(c1ccc(F)cc1)N1C[C@@H]2C[C@H](C1)c1ccc(NS(=O)(=O)c3cccc(F)c3)c(=O)n1C2 | inconclusive: 17.8 µM [inhibitor, single point] |  |  |
| COCC1CN(C)CC12CCN(C(=O)c1cc3ccccc3[nH]1)CC2 (stereo not drawn) | inconclusive: 5.01 µM [inhibitor, partial curve, poor fit] |  |  |
| Cn1cc(CN2Cc3c(cc(N4CCOCC4)nc3-c3ccc(CO)cc3)C2=O)cn1 |  |  | inactive [at 44.1 µM] |
| C[C@H]1CN(C(=O)Nc2cc(F)cc(F)c2)C[C@@H]1c1nc(-c2ccncc2)no1 | inconclusive: 3.98 µM [inhibitor, single point] |  |  |
| COc1ccc(OCC2c3cc(OC)c(OC)cc3CCN2C(=O)c2c(F)cccc2F)cc1 (stereo not drawn) | inconclusive: 12.6 µM [inhibitor, single point] |  |  |
| CN1CC(=O)N(c2ccc(Cl)cc2)Cc2c1ncnc2N1CCC(Cc2ccccc2)CC1 | active: 12.6 µM |  |  |
| NS(=O)(=O)c1ccc(NC(=O)c2csnn2)cc1 |  | inactive: 32.7% [at 0.594 µM] |  |
| CC(C)c1ccc(NC(=O)c2cnc3sc(N4CCOCC4)nn3c2=O)cc1 | inconclusive: 12.6 µM [inhibitor, partial curve, poor fit] |  |  |
| CCOC(=O)C1=C(C)N=C2SC=C(CC(=O)Nc3ccc(OC)cc3)N2C1c1cccc(OC)c1 (stereo not drawn) |  | inactive: -10.6% |  |
| CN1CCC(N2CCN(S(=O)(=O)c3cccc(F)c3)CC2)C1=O (stereo not drawn) |  | inactive: 8.6% |  |
| O=C(NCC1Cn2cccc2CN1Cc1cccnc1)Nc1ccccc1 (stereo not drawn) | inconclusive: 10 µM [inhibitor, single point] |  |  |
| COc1ccc(CN2CC3(CCN(C(=O)CCCc4ccccc4)CC3)C2=O)cc1 |  | inactive: -20.7% |  |
| O=C1[C@@H]2C[C@@H](O)CN2C2(CN(Cc3ccccn3)C2)C(=O)N1Cc1cccc(Cl)c1 | inconclusive: 11.2 µM [inhibitor, single point] |  |  |
| COc1ccc(-c2ccnc3nc(-c4cccs4)nn23)cc1OC | inconclusive: 3.16 µM [inhibitor, partial curve, poor fit] |  |  |
| Cc1cc(C)cc(NC(=O)COCc2cc(-c3ccc4c(c3)OCO4)on2)c1 |  | inactive: 129% |  |
| Cc1ccc(-n2ncc3c(Nc4cccc(C(F)(F)F)c4)ncnc32)cc1C | inconclusive: 10 µM [inhibitor, single point] |  |  |
| CS(=O)(=O)N(C1CCOCC1)C1CN(C(=O)CCc2c[nH]c3ccccc23)C1 | inconclusive: 17.8 µM [inhibitor, single point] |  |  |

| Compound | Potency | activity, negative = inhibition | outcome |
| --- | --- | --- | --- |
| Cc1cc2c(cc1S(=O)(=O)NCc1ccccc1Cl)OCC(=O)N2 |  | inactive: -9.93% |  |
| COc1cccc(-c2nc(CS(=O)(=O)CC(=O)NCCc3ccc(Cl)cc3)c(C)o2)c1 | inconclusive: 14.1 µM [inhibitor, single point] |  |  |
| CC1CCCCN1C(=O)CSc1c2c(nc3cc(Cl)ccc13)CCCC2 (stereo not drawn) | inconclusive: 17.8 µM [inhibitor, single point] |  |  |
| CC(C)C1=NOC2(CCCN(CC3CCCC3)C2)C1 (stereo not drawn) | inconclusive: 15.8 µM [inhibitor, single point] |  |  |
| Cn1ccnc1CN1C[C@@H]2C[C@H]1C(=O)N(Cc1cccnc1)c1ccccc1O2 | inconclusive: 31.6 µM [inhibitor, single point] |  |  |
| CC(C)C(NC(=O)c1cn(C2CCC(N)CC2)nn1)c1nc(C2CC2)no1 (stereo not drawn) | inconclusive: 10 µM [inhibitor, partial curve, poor fit] |  |  |
| CCN(Cc1ccccc1)C(=O)Cn1c(=O)n(-c2ccc(Cl)c(Cl)c2)c(=O)c2c(C)c(C(=O)N(C)C)sc21 | inconclusive: 17.8 µM [inhibitor, single point] |  |  |
| O=C(Cn1nc2n(c1=O)CCN(Cc1cccc(Cl)c1)C2=O)NCCC1=CCCCC1 | inconclusive: 3.98 µM [inhibitor, single point] |  |  |
| COc1ccc(CC(=O)N2CCc3c(cnc(C)c3CNC(=O)c3ccc4c(c3)OCO4)C2)cc1 |  |  | inactive |
| Cc1cc(C)c2nc(N(Cc3cccnc3)C(=O)Cc3ccccc3)sc2c1 | active: 10 µM |  |  |
| COCCN1CCOc2nc(-c3cccc(OC(F)(F)F)c3)ncc2C1=O | inconclusive: 7.08 µM [inhibitor, full curve, poor fit] |  |  |
| COc1cccc(C(=O)N2CCC(N(Cc3ccccc3)C3CCOCC3)CC2)c1 | inconclusive: 11.2 µM [inhibitor, partial curve, poor fit] |  |  |
| COc1cc(OC)c(NC(=O)Cn2cnc3sc(C)c(S(=O)(=O)N4CCC(C)CC4)c3c2=O)cc1Cl |  | inactive: -23.4% |  |
| O=C(c1ccc2ccccc2n1)N1CCCC(Cc2noc(C3CC3)n2)C1 (stereo not drawn) |  | inactive: 28.4% |  |
| COC[C@@H]1CN(C(=O)c2ccc3ccccc3n2)C[C@H]1c1ccncc1 | inconclusive: 20 µM [inhibitor, single point] |  |  |
| CN1C(=O)C(CC(=O)NCC2CCN(Cc3ccccc3F)CC2)=C2CCCCC21 (stereo not drawn) | inconclusive: 7.94 µM [inhibitor, partial curve, poor fit] |  |  |
| Cc1ccc(Cl)cc1N1CCN(C(=O)c2ccc3c(c2)N(Cc2ccccc2)CCS3)CC1 | active: 8.91 µM |  |  |
| CN(C)C[C@@H]1CN(Cc2cccnc2)C[C@H]1NC(=O)c1ccc(Cl)s1 | inconclusive: 10 µM [inhibitor, single point] |  |  |
| COc1ccc(-n2c(=O)c3c4c(sc3n(Cc3ccc(C(C)(C)C)cc3)c2=O)CCC4)c(OC)c1 | inconclusive: 17.8 µM [inhibitor, single point] |  |  |
| CC(C)N1CC2CCC(C1)N2Cc1ccc(-c2ccsc2)cc1 | active: 11.2 µM |  |  |
| O=C1Nc2ccccc2CC12CCN(Cc1cccc3ccccc13)C2 (stereo not drawn) | inconclusive: 11.2 µM [inhibitor, partial curve, poor fit] |  |  |
